Hit rate of the full screen: of about 310,000 compounds, about 2,200 (0.71%) showed an effect of 50% or more. The effect is printed as a negative number. Some of the results follow.
target: human ether-à-go-go-related gene (hERG) potassium channel (human, UniProt Q12809); test: primary screen, population patch clamp on CHO cells stably expressing hERG
Sequence (Q12809 whole entry, looked up): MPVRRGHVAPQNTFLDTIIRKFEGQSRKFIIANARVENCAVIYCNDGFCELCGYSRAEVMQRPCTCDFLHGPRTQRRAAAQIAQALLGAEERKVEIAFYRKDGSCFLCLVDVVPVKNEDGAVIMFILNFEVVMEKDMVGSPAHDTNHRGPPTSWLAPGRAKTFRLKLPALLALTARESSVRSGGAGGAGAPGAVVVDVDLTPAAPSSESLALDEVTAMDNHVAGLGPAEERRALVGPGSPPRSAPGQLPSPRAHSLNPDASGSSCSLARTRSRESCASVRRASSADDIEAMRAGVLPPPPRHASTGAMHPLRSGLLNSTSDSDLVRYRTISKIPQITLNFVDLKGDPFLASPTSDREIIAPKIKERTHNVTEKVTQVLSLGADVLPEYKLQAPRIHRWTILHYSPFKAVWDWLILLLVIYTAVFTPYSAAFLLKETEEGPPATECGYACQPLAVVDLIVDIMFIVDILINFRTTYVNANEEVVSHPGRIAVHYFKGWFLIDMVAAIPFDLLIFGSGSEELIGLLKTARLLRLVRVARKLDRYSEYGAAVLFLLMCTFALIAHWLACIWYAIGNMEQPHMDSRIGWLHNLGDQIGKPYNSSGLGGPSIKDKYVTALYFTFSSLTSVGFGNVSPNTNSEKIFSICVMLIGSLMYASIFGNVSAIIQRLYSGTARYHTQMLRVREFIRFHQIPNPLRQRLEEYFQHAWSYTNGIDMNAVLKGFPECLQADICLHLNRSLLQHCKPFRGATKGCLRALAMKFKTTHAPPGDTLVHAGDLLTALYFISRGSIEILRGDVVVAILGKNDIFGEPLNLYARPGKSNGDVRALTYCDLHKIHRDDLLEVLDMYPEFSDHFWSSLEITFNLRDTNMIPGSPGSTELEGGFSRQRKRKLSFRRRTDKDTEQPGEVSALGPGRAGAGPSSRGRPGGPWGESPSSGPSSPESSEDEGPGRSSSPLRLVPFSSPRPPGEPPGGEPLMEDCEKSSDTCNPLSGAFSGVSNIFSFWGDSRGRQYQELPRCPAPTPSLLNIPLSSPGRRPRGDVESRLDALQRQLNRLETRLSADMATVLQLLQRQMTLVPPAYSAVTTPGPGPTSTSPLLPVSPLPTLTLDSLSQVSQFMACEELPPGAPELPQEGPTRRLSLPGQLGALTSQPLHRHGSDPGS

Row | Structure (SMILES) | hERG current change (%, negative = inhibition) at 1uM
1 | Cc1cc(S(=O)(=O)N2CCCCC2)c(C)s1 | 8.88%
2 | Cc1[nH]c2ccccc2c1/C=N/NC(=O)c1cccc(Br)c1 | 15.6%
3 | COc1ccccc1CNC(=O)c1cc(C(C)=O)c[nH]1 | 22.4%
4 | COc1cc(OC)cc(C(=O)NNC(=O)c2ccccc2Br)c1 | 11.4%
5 | O=C(c1ccc2c(c1)OCO2)N1CCN(S(=O)(=O)c2ccccc2)CC1 | 1.68%
6 | CC(C)OCCCNc1nc2c(c(=O)n(Cc3ccccc3F)c(=O)n2C)n1C | -11%
7 | Cc1ccc(-c2nnc(SCC(=O)N3CCCC3)o2)cc1C | 5.77%
8 | CN(C)CCNC(=O)Cc1ncc(C(F)(F)F)cc1Cl | 19%
9 | Cc1ccc(C(c2nnnn2CCc2ccccc2)N2CCSCC2)cc1 (centres unmarked) | 4.44%
10 | CC(C)(CN1CCCC1)NC(=O)C1CCC(=O)N(CCCN2CCOCC2)C1 (centres unmarked) | 8.19%
11 | Cc1cc(=O)[nH]c(=S)n1-c1ccccc1 | 12.6%
12 | COc1ccc(N2C(=O)CC(N3CCN(c4ccc(C(=O)c5cccnc5)cc4)CC3)C2=O)cc1 (centres unmarked) | -17.1%
13 | CCOC(=O)/C(=N\NC(=O)c1ccccc1)c1ccccc1 | -4.53%
14 | CCOC(=O)N1CCN(C(=O)c2cn(C)c3ccc(S(=O)(=O)N4CCOCC4)cc3c2=O)CC1 | 14.5%
15 | O=C(CN1CCN(CC(=O)Nc2ccccc2C(F)(F)F)CC1)Nc1ccccc1F | -15.1%
16 | Nc1[nH]nc2nc(N3CCOCC3)nc(-c3ccccc3)c12 | -7.38%
17 | COC(=O)c1ccc(Cn2cc([N+](=O)[O-])cn2)cc1 | 13.4%
18 | Cc1ccccc1Nc1nnc(SCc2nc3ccccc3c(=O)[nH]2)s1 | 9.2%
19 | COc1ccc(CC(=O)Nc2cccc(-c3cn4ccccc4n3)c2)cc1 | -4.55%
20 | CCc1ccc(C2=NN(CCC(=O)NC(C)CCc3ccccc3)C(=O)CC2)cc1 (centres unmarked) | -0.87%
21 | Cn1c(-c2cccc3ccccc23)n[nH]c1=S | 10.3%
22 | CCCNC(=O)c1cccc(Cn2nc(C)c(Br)c2C)c1 | 13.1%
23 | Cc1ccccc1OCCC(=O)Nc1c(C)n(C)n(-c2ccccc2)c1=O | 4.18%

Row | Structure (SMILES) | hERG current change (%, negative = inhibition) at 1uM
24 | O=C(O)CCNS(=O)(=O)c1ccccc1 | 1.32%
25 | COc1cccc(-c2noc(CCCC(=O)N3CCOCC3)n2)c1 | -2.41%
26 | COc1ccc(C2SCCN2C(=S)Nc2cccc(C(F)(F)F)c2)cc1 (centres unmarked) | 11.7%
27 | COc1ccc(C(=O)CSc2nnc(CCc3ccccc3)n2-c2ccccc2)cc1 | 4.9%
28 | CCN(CC)S(=O)(=O)c1cc(C(=O)OCC(=O)NC(=O)c2cccn2C)ccc1C | 4.88%
29 | Cc1ccc(C(C(=O)NCC2CCCO2)N(C(=O)c2snc(C(N)=O)c2N)c2ccccc2F)o1 (centres unmarked) | -5.24%
30 | COc1ccc(Cn2c(=N)c(C(=O)NC3CCCCC3)cc3c(=O)n4ccccc4nc32)cc1 | -5.89%
31 | C=CCC(NC(=O)Cc1ccccc1)C(=O)NCCC (centres unmarked) | 15.3%
32 | CCOCCN(C(=O)COC)c1cccc(OC)c1 | -3.09%
33 | CCN1CCN(Cc2cccnc2)CC1 | 11.9%
34 | Cc1ccc(S(=O)(=O)Nc2ccc(N3CCCCC3)cc2)cc1 | 15.5%
35 | COc1cccc(NP(=O)(Oc2ccccc2Cl)Oc2ccccc2Cl)c1 | 8.66%
36 | CCn1c(=O)cc(OCC(=O)Nc2ccc3c(c2)OCCO3)c2ccccc21 | 10.7%
37 | COc1ccccc1NC(=O)Nc1ccc2c(c1)OCCO2 | 17.6%
38 | COc1cc2c(cc1[N+](=O)[O-])n(C(C)C)c(=O)n2C(C)C | -21.8%
39 | Cc1ccc(C)n1-n1c(C)nc2sc3c(c2c1=O)CCCCC3 | -1.26%
40 | Cc1cc(NC(=O)Nc2ccccc2[N+](=O)[O-])no1 | 9.68%
41 | CCOC(=O)c1[nH]c(C)c(C(=O)Nc2ccc(C)c(Cl)c2)c1C | 6.95%
42 | Cc1ccc(NS(=O)(=O)c2ccc(CCC(=O)N3CCOCC3)cc2)cc1 | 3.9%
43 | COc1ccc(Nc2nc(C)cc(C)c2C(N)=O)cc1 | 4.79%
44 | COc1cc2c(cc1OC)/C(=C/C(=O)c1ccc(NC(C)=O)cc1)NCC2 | 13.2%
45 | Cc1c(NC(=O)CSc2nncn2-c2ccccc2)c(=O)n(-c2ccccc2)n1C | 24.4%
46 | COC(=O)c1sc2ccccc2c1-n1cccc1C(=O)C(=O)Nc1ccccc1 | -2.13%

Row | Structure (SMILES) | hERG current change (%, negative = inhibition) at 1uM
47 | COC(=O)CNC(=O)CN1C(=O)NC2(CCCc3ccccc32)C1=O (centres unmarked) | 11.7%
48 | COc1cc(C(c2c(O)cc(C)[nH]c2=O)c2c(O)cc(C)[nH]c2=O)ccc1O | -0.407%
49 | Cc1onc(-c2ccccc2Cl)c1C(=O)OCc1nnc(-c2ccccc2)o1 | 3.84%
50 | COc1ccc(-n2c(SCC(=O)Nc3ccccc3)nc3c(c2=O)SCC3)cc1 | 10.7%
51 | COc1ccc(NC(=O)CSc2ccc3nnc(-c4ccccn4)n3n2)cc1OC | 7.61%
52 | CCc1ccc(CN(C(=O)COc2c(C)cccc2C)C2CCS(=O)(=O)C2)cc1 (centres unmarked) | 16.6%
53 | CC(=O)Nc1ccc(S(=O)(=O)NCCC(=O)NCc2ccncc2)cc1 | -20.4%
54 | CCOC(=O)c1c(C2COc3ccccc3O2)csc1NC(=O)c1ccccc1 (centres unmarked) | 23.3%
55 | COc1cc(C(=O)N2CCN(C(=O)c3ccccc3)CC2)cc(OC)c1OC | 9.28%
56 | O=C(NCCCn1ccnc1)c1ccc(NS(=O)(=O)c2ccc(Cl)c(Cl)c2)cc1 | 19%
57 | N#Cc1ccc(OCCN2CCc3ccccc3C2)cc1 | -2.03%
58 | COc1ccc(OC)c(S(=O)(=O)Nc2ccc(CC(=O)O)cc2)c1 | -5.58%
59 | CC1(C)CC(=NNC(=O)c2n[nH]c3c2CCC3)CC(C)(C)N1 | 10.1%
60 | CCOc1ccc(CCNc2nc3ccccc3n3c(C)nnc23)cc1OCC | 9.92%
61 | CC(=O)c1cccc(N(CC(=O)Nc2ccc(S(=O)(=O)N3CCCC3)cc2)S(C)(=O)=O)c1 | 10.5%
62 | Oc1ccc(Cl)cc1-c1cc(-c2ccco2)[nH]n1 | 10.7%
63 | COc1ccc(S(=O)(=O)N/N=C(/C)c2ccc(Cl)cc2)cc1 | 4.56%
64 | O=C(/C=C/c1ccccc1)C1=C(O)C(=O)N(CCO)C1c1ccc2c(c1)OCO2 (centres unmarked) | 16.7%
65 | Cc1ccc(/C=C/C(=O)c2ccc(N3CCOCC3)cc2)s1 | 12.6%
66 | Cc1ccc(/C=N/NC(=O)c2c(C)nc3ccc(Br)cn23)cc1 | 13.3%
67 | Cc1cc(C(=O)Nc2ccc(S(=O)(=O)N3CCCC3)cc2)no1 | 10.3%
68 | CCCOC(=O)c1c(-c2ccccc2)nc(CC)c(C(=O)SCC)c1CCC | 18.4%
69 | O=C(CSc1nc2ccccc2c(=O)n1-c1ccc(F)cc1)Nc1ccc(C(=O)O)cc1 | 2.41%

Row | Structure (SMILES) | hERG current change (%, negative = inhibition) at 1uM
70 | CCOC(=O)c1nc(NCc2cccnc2)c2ccccc2n1 | 5.16%
71 | O=C(COC(=O)c1cc([N+](=O)[O-])ccc1N1CCOCC1)c1ccc(OC(F)F)cc1OC(F)F | 13.7%
72 | C=C1C(C(=O)N2CCOCC2)C1C(=O)N1CCOCC1 (centres unmarked) | 10.5%
73 | CCCNC(=O)Cn1nc(C(F)(F)F)c2c1CCCC2 | 13.5%
74 | Cc1ccc(Cl)cc1N1CCN(C(=O)C2CCCN(S(=O)(=O)c3cnc[nH]3)C2)CC1 (centres unmarked) | 12.4%
75 | Cc1ccc2nc(NC(=O)c3ccc(NS(=O)(=O)c4cccs4)cc3)sc2c1 | 8.33%
76 | CCN(c1ccccc1)S(=O)(=O)c1cccc(C(=O)N(C)CCOc2ccccc2)c1 | 12.8%
77 | Cc1ccc(S(=O)(=O)N(C)c2ccc3sc(C)nc3c2)cc1 | 1.46%
78 | COc1ccc(CCN2C(=O)CC(Cc3ccc(Br)cc3)C2=O)cc1OC (centres unmarked) | -1.53%
79 | Cn1c(CNC(=O)CNC(=O)c2ccc(F)cc2)cc(=O)n(C)c1=O | -15.4%
80 | COc1ccc(-c2[nH]ncc2CN2CCCCCCC2)c(OC)c1 | -5.32%
81 | CS(=O)(=O)Nc1ccc(C(=O)Nc2ccc3ccccc3c2)cc1 | 14.3%
82 | C=CCn1c(SCC(=O)Nc2cccnc2Cl)nnc1-c1ccc(C(C)(C)C)cc1 | 9.68%
83 | CC(C)Oc1ccc(/C(O)=C2/C(=O)C(=O)N(CCN3CCNCC3)C2c2ccc(C(C)C)cc2)cc1 (centres unmarked) | 23.3%
84 | CC(C)c1nnc(NC(=O)CCC(=O)NCc2ccc(F)cc2)s1 | 28.9%
85 | Br.N=C1CCCN1CC(=O)c1cccs1 | -5.83%
86 | O=C(Cc1ccccc1)NNc1ccc2ccccc2c1 | -1.2%
87 | COC(=O)c1ccccc1NC(=O)COC(=O)CO/N=C(\C)c1ccc2c(c1)OCO2 | 21.2%
88 | c1coc(-c2nc3nc4ccccc4nc3n2CC2CCCO2)c1 (centres unmarked) | 4.02%
89 | CN(CC(=O)Nc1ccccc1[N+](=O)[O-])Cc1ccc(Br)cc1 | 11.5%
